Test results from PubChem BioAssay AID588795 (National Center for Advancing Translational Sciences (NCATS), 2011).
Hit rate of the full screen: of about 390,000 compounds, about 1,400 (0.36%) were called active. This list was built around the results that the source calls inconclusive (neither active nor inactive); the mix of calls is not that of the screen. The call rests on the fitted dose curve; in most records, active means well fitted inhibition curve with a large enough effect; inconclusive means small, poorly fitted or top-dose-only effect; inactive means no such curve, though single readings can be large or run the other way. Potencies of inconclusive entries are doubtful fits and often do not repeat.

These compounds were tested against Flap endonuclease 1 (Homo sapiens) (UniProt P39748) (assay: qHTS Assay for the Inhibitors of Human Flap endonuclease 1 (FEN1).). Details: Recombinant FEN1 flap cleavage, fluorescence, 15 min; series mostly up to 114 µM; activity change, negative = inhibition: at the top concentration.
Method in brief: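 Quantitative HTS format: each compound was titrated, incubated with 10 nM nuclease for 15 min at room temperature, then challenged with flap substrate at 50 nM final. Signal change over 15 min gave concentration–effect curves.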
Further: nearly all actives have a fitted effect of over 65% in size.
On the % scale 0 is the no-effect control and ±100 the full control effect; potency means the concentration at half of the fitted maximal effect; tags describe the fitted curve by direction and shape.

Sequence of UniProt P39748 (P39748 whole entry, looked up): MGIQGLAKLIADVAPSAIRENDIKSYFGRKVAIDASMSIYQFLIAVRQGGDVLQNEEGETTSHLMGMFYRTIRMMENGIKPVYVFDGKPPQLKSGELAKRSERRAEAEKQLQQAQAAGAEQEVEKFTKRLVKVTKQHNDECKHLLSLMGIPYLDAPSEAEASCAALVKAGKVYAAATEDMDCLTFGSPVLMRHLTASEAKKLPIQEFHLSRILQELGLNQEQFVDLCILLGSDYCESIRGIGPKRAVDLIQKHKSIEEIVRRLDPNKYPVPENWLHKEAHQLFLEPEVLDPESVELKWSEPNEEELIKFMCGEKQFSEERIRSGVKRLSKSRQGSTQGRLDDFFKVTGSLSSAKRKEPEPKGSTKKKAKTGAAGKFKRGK

Row | Compound | Potency | activity change, negative = inhibition
1 | COc1cc(NC(=O)c2ccnc(N)c2)cc(C(=O)Nc2cccc(C(F)(F)F)c2)c1 | inconclusive: 50.1 µM [inhibitor, partial curve] | 
2 | CCC1CCCCN1C(=O)CSc1nc2c([nH]c3ccccc32)c(=O)n1-c1cccc(OC)c1 (centres undefined) | inconclusive: 44.7 µM [inhibitor, partial curve, poor fit] | 
3 | CC1=NN(c2ccccc2)C(=O)C1 | inconclusive: 8.91 µM [inhibitor, full curve] | 
4 | O=C(Nc1ccccc1NC(=O)c1c(F)cccc1F)c1c(F)cccc1F | inconclusive: 79.4 µM [inhibitor, partial curve, poor fit] | 
5 | O=C(Nc1ccc2oc(-c3cccnc3)nc2c1)c1ccc(-c2ccccc2)o1 | inconclusive: 56.2 µM [inhibitor, partial curve, poor fit] | 
6 | CC(C)CCN1C(=O)c2ccc(C(=O)Nc3ccccc3C(=O)O)cc2C1=O | inconclusive: 50.1 µM [inhibitor, partial curve, poor fit] | 
7 | O=C(c1ccccc1)N1CCN(Cc2cccc(Oc3ccccc3)c2)CC1 | inconclusive: 89.1 µM [inhibitor, partial curve, poor fit] | 
8 | O=C(O)COc1ccccc1/C=N/NC(=O)COc1ccc(-c2ccccc2)cc1 | inconclusive: 50.1 µM [inhibitor, partial curve, poor fit] | 
9 | O=C(COc1ccc2ccccc2c1)NNC(=O)Nc1ccccc1F |  | inactive: 3.4%
10 | Cn1c(=O)n(Cc2ccccc2)c(=O)c2c1nc1n2CCCN1CCc1ccccc1 | inconclusive: 89.1 µM [inhibitor, partial curve, poor fit] | 
11 | CCNC(=S)N(Cc1ccco1)Cc1cc2cc3c(cc2[nH]c1=O)OCCO3 |  | inactive: -6.69%
12 | O=C(COC(=O)c1ccccc1Oc1ccccc1)NCc1ccco1 | inconclusive: 79.4 µM [inhibitor, partial curve, poor fit] | 
13 | CCOC(=O)N1CCN([N+]([O-])=NOc2cc(O/N=[N+](\[O-])N(C)C)c([N+](=O)[O-])cc2[N+](=O)[O-])CC1 | inconclusive: 31.6 µM [inhibitor, single point] | 
14 | COC1=C(Br)C(=O)c2ncccc2C1=O | inconclusive: 50.1 µM [inhibitor, partial curve] | 
15 | CN1CC(c2ccc(C#N)cc2)C2(COc3ccccc3C2=O)C12C(=O)Nc1ccccc12 (centres undefined) | inconclusive: 50.1 µM [inhibitor, partial curve, poor fit] | 
16 | Cc1ccc2[nH]c(O)c(N=NC(=O)c3ccc(NS(=O)(=O)c4cccs4)cc3)c2c1 | inconclusive: 39.8 µM [inhibitor, single point] | 
17 | CCCN1Cc2cccc(C(=O)Nc3ccc4c(c3)OCO4)c2C1=O | inconclusive: 56.2 µM [inhibitor, partial curve, poor fit] | 
18 | O=C(c1ccc(=O)oc1)N1CCCc2ccccc21 | active: 56.2 µM | 
19 | CCN(c1ccccc1)S(=O)(=O)c1cc(NC(=O)COC(=O)C2CC2)ccc1Cl | inconclusive: 89.1 µM [inhibitor, partial curve, poor fit] | 
20 | CN(C)C(=O)CN1C(=O)NC(c2ccccc2)(c2ccccc2)C1=O |  | inactive: 14.2%

Row | Compound | Potency | activity change, negative = inhibition
21 | COc1ccc(-c2nc3nc(C)cc(Nc4ccc(C(C)=O)cc4)n3n2)cc1 | inconclusive: 89.1 µM [inhibitor, single point] | 
22 | Cc1cc(C)cc(-n2c(SCC(=O)Nc3nnc(C)s3)nc3c([nH]c4ccccc43)c2=O)c1 |  | inactive: 2.82%
23 | O=C(NCC1CC1)c1ccc2c3n(nc2c1)-c1ccccc1CO3 | inconclusive: 50.1 µM [inhibitor, partial curve, poor fit] | 
24 | O=C(Nc1nc(-c2ccco2)c(-c2ccco2)s1)c1ccc(F)cc1F | inconclusive: 79.4 µM [inhibitor, partial curve] | 
25 | COc1cc(C2C(C(C)=O)=C(O)C(=O)N2CCc2c[nH]c3ccccc23)ccc1O (centres undefined) | inconclusive: 39.8 µM [inhibitor, partial curve, poor fit] | 
26 | CN(CCO)c1nc(N)c2c(N)nc3c(c2c1C#N)CC(=O)N3Cc1cccs1 |  | inactive: -18.5%
27 | Cc1ccc(Nc2nnc(-c3ccc(C)c(S(=O)(=O)N4CCCCC4)c3)c3ccccc23)cc1 |  | inactive: -20.8%
28 | Cn1nc(C(F)(F)F)c(C(=O)Nc2ccc(F)cc2F)c1Sc1cccc(Cl)c1 | inconclusive: 79.4 µM [inhibitor, partial curve, poor fit] | 
29 | O=C(/C=C/c1ccc([N+](=O)[O-])cc1)Nc1cccc(C(=O)Nc2ccccc2C(=O)O)c1 | inconclusive: 25.1 µM [inhibitor, full curve, poor fit] | 
30 | CCC(=O)Nc1ccc(NC(=O)c2c(C)nc3ccccn23)cc1 | inconclusive: 89.1 µM [inhibitor, single point] | 
31 | Cc1ccc(/C=C2\SC(=S)N(CCCC(=O)Nc3ccccc3C(=O)O)C2=O)cc1 | inconclusive: 79.4 µM [inhibitor, partial curve, poor fit] | 
32 | COc1ccc(Nc2nc(N)c([N+](=O)[O-])c(NC3CCCCC3)n2)cc1 | inconclusive: 89.1 µM [inhibitor, partial curve, poor fit] | 
33 | Oc1ccc(CN2CCN(Cc3ccccc3)CC2)c2cccnc12 | inconclusive: 28.2 µM [inhibitor, partial curve, poor fit] | 
34 | CCCN1CCC(=O)N(C(CSc2ccc(OC)cc2)c2ccccc2)CC1 (centres undefined) |  | inactive: 4.27%
35 | Cn1c2c(c(=O)n(C)c1=O)C(c1cc(Br)ccc1F)CC(=O)N2 (centres undefined) | inconclusive: 39.8 µM [inhibitor, single point] | 
36 | CC(C)OC(=O)CSc1nnc(-c2ccc(C(C)(C)C)cc2)n1N |  | inactive: 10.4%
37 | CS/C(=N\S(=O)(=O)c1cccs1)NC(=O)CSc1nc2ccccc2s1 | inconclusive: 56.2 µM [inhibitor, partial curve, poor fit] | 
38 | CC(=C\c1ccccc1)/C=C1/SC(=S)N(CCCC(=O)O)C1=O | inconclusive: 56.2 µM [inhibitor, partial curve] | 
39 | CN1C(=O)/C(=C/c2ccc(C(=O)Nc3ccc(O)cc3C(=O)O)cc2)SC1=S | inconclusive: 28.2 µM [inhibitor, full curve] | 
